No constants are given. Whether binding was seen depends on the method and setting. For some assays here: Binding seen in cells or lysates may run through a third protein. Some results given as binding are weak or reduced against the parent protein; the word gives no strength.
T1: cytochrome P450 side chain cleavage enzyme (mouse (endogenous in MA-10)) (UniProt Q9QZ82)
T1 sequence: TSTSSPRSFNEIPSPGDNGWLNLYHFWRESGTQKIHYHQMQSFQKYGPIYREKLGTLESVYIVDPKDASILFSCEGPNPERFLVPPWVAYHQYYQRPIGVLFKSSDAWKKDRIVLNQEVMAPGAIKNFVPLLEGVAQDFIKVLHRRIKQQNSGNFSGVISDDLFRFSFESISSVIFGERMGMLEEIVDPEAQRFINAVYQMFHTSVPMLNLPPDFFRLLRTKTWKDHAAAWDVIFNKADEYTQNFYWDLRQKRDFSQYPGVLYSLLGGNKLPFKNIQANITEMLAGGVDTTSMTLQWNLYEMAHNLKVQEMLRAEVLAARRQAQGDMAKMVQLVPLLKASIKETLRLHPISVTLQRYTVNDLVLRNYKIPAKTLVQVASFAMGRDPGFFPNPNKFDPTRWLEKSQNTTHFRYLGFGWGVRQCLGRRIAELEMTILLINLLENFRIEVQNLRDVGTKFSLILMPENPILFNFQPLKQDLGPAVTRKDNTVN

Amino acid sequences for entries named in this document (tags omitted).
UniProt O35129: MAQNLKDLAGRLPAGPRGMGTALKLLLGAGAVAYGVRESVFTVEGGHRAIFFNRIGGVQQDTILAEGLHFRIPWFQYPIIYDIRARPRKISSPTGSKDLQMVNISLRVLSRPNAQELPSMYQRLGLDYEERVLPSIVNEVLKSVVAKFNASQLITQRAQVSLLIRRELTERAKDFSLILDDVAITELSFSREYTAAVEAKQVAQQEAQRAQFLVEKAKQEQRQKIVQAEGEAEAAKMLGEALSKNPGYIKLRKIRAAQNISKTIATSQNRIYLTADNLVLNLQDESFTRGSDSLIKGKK

T2: steroidogenic acute regulatory protein (mouse (endogenous in MA-10)) (UniProt P51557)
T2 sequence: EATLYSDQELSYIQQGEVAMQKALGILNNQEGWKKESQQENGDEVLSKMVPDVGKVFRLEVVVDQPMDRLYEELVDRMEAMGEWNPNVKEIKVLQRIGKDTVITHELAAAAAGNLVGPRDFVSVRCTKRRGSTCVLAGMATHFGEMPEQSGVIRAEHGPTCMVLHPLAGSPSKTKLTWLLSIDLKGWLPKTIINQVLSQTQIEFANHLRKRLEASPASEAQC

T3: prohibitin-1 (mouse (endogenous in MA-10)) (UniProt P67778)
T3 sequence: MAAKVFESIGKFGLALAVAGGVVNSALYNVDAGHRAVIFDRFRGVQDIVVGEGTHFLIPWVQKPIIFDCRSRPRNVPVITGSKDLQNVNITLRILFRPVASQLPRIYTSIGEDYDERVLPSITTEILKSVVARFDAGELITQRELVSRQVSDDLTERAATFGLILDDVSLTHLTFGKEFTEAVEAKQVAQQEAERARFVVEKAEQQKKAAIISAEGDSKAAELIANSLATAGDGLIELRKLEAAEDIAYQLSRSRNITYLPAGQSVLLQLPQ

B1: prohibitin-1 (protein, UniProt P67778 1-272)
chain: T3 sequence
B2: mitochondrial protease LonP1 (enzyme, UniProt Q8CGK3 66-949)
chain: LWDSGNRGGSDETSEGGAEDGATASTGEGPVVTALAPMTVPDVFPHLPLIAITRNPVFPRFIKIVEVKNKKLVELLRRKVRLAQPYVGVFLKRDDNNESDVVESLDEIYHTGTFAQIHEMQDLGDKLRMIVTGHRRIHISRQLEVEPEGLEPEAEKQKSRRKLKRGKKEVEDELGPKPQLEMVTEAATDTSKEVLMVEVENVAHEDFQVTEEVKALTAEIVKTIRDIIALNPLYRESVLQMMQAGQRVVDNPIYLSDMGAALTGAESHELQDVLEETNILKRLYKALSLLKKEFELSKLQQRLGREVEEKIKQTHRKYLLQEQLKIIKKELGLEKDDKDAIEEKFRERLRELVVPKHVMDVVDEELSKLALLDNHSSEFNVTRNYLDWLTSIPWGRQSDENLDLARAQAVLEEDHYGMEDVKKRVLEFIAVSQLRGSTQGKILCFHGPPGVGKTSIARSIARALGREYFRFSVGGMTDVAEIKGHRRTYVGAMPGKIIQCLKKTKTENPLVLIDEVDKIGRGYQGDPSSALLELLDPEQNANFLDHYLDVPVDLSKVLFICTANVIDTIPEPLRDRMEMINVSGYVAQEKLAIAERYLVPQARTLCGLDESKAQLSAAVLTLLIKQYCRESGVRNLQKQVEKVLRKAAYKIVSGEAQTVQVTPENLQDFVGKPVFTVERMYEVTPPGVVMGLAWTAMGGSTLFVETSLRRPQPSGSKEDKDGSLEVTGQLGDVMKESARIAYTYARAFLMEQDPENDFLVTSHIHLHVPEGATPKDGPSAGCTIVTALLSLALGQPVLQNLAMTGEVSLTGKVLPVGGIKEKTIAAKRAGVTCIILPAENRKDYSDLAPFITEGLEVHFVEHYRDIFPIAFPRREHREALAVER
B3: mitochondrial protease YME1L-1 (enzyme, UniProt O88967 1-715)
chain: MFSLSSTVQPQVTIPLSHLINAFHSPKNISVSVNTPVSQKQHRDTVPEHEAPSSEPVLNLRDLGLSELKIGQIDKMVENLLPGFYKDKRVSSCWHTSHISAQSFFENKYGHLDMFSTLRSSSLYRQHPKTLRSICSDLQYFPVFIQSRGFKTLKSRTRRLQSTSERLVEAQNIAPSFVKGFLLRDRGTDLESLDKLMKTKNIPEAHQDAFKTGFAEGFLKAQALTQKTNDSLRRTRLILFVLLLFGIYGLLKNPFLSVRFRTTTGLDSAVDPVQMKNVTFEHVKGVEEAKQELQEVVEFLKNPQKFTVLGGKLPKGILLVGPPGTGKTLLARAVAGEADVPFYYASGSEFDEMFVGVGASRIRNLFREAKANAPCVIFIDELDSVGGKRIESPMHPYSRQTINQLLAEMDGFKPNEGVIIIGATNFPEALDNALIRPGRFDMQVTVPRPDVKGRTEILKWYLNKIKFDKSVDPEIIARGTVGFSGAELENLVNQAALKAAVDGKEMVTMKELEFSKDKILMGPERRSVEIDNKNKTITAYHESGHAIIAYYTKDAMPINKATIMPRGPTLGHVSLLPENDRWNETRAQLLAQMDVSMGGRVAEELIFGTDHITTGASSDFDNATKIAKRMVTKFGMSEKLGVMTYSDTGKLSPETQSAIEQEIRILLRESYERAKHILKTHAKEHKNLAEALLTYETLDAKEIQIVLEGKKLEVR

How the values were obtained:
[1] = molecular target: T1, cytochrome P450 side chain cleavage enzyme (mouse (endogenous in MA-10)); assay: co-IP; 10 uL protein-specific antibody to the bait added to 500 uL MA-10 cell lysate overnight at 4°C, Dynabeads protein G 2 h, 5 washes in ice-cold PBS, immunoblot; cells with or without db-cAMP (0.5 mM) or hCG (20 ng/mL)
[2] = molecular target: T2, steroidogenic acute regulatory protein (mouse (endogenous in MA-10)); assay: as above
[3] = molecular target: T3, prohibitin-1 (mouse (endogenous in MA-10)); assay: as above
[4] = molecular target: PHB2 (mouse (endogenous in MA-10)) (UniProt O35129); assay: as above
[5] = molecular target: PHB2 (mouse (endogenous in MA-10)) (UniProt O35129); assay: native gel or EMSA; BN-PAGE of lysates of MA-10 cells with or without db-cAMP, immunoblot with anti-PHB1 and anti-PHB2

Molecule | binding [1] | binding [2] | binding [3] | binding [4] | binding [5]
PHB2 (from UniProt O35129 1-299) | binds | binds | binds |  | 
B1 | no binding | binds |  | binds | binds
B2 |  |  | binds | binds | 
B3 |  |  | binds | binds | 
